Test results as given in paper PMC4336329 (PLoS ONE, 2015).
Out of some 310,000 compounds screened, about 14,000 (4.5%) showed an effect of 50% or more. The effect is printed as a negative number. The list shows a part of the results.

biological target: human ether-à-go-go-related gene (hERG) potassium channel (human, UniProt Q12809); test: primary screen, population patch clamp on CHO cells stably expressing hERG
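Note: peak tail current of the secondary pulse compared with the same well before compound.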

Sequence of human ether-à-go-go-related gene (hERG) potassium channel (Q12809 whole entry, looked up): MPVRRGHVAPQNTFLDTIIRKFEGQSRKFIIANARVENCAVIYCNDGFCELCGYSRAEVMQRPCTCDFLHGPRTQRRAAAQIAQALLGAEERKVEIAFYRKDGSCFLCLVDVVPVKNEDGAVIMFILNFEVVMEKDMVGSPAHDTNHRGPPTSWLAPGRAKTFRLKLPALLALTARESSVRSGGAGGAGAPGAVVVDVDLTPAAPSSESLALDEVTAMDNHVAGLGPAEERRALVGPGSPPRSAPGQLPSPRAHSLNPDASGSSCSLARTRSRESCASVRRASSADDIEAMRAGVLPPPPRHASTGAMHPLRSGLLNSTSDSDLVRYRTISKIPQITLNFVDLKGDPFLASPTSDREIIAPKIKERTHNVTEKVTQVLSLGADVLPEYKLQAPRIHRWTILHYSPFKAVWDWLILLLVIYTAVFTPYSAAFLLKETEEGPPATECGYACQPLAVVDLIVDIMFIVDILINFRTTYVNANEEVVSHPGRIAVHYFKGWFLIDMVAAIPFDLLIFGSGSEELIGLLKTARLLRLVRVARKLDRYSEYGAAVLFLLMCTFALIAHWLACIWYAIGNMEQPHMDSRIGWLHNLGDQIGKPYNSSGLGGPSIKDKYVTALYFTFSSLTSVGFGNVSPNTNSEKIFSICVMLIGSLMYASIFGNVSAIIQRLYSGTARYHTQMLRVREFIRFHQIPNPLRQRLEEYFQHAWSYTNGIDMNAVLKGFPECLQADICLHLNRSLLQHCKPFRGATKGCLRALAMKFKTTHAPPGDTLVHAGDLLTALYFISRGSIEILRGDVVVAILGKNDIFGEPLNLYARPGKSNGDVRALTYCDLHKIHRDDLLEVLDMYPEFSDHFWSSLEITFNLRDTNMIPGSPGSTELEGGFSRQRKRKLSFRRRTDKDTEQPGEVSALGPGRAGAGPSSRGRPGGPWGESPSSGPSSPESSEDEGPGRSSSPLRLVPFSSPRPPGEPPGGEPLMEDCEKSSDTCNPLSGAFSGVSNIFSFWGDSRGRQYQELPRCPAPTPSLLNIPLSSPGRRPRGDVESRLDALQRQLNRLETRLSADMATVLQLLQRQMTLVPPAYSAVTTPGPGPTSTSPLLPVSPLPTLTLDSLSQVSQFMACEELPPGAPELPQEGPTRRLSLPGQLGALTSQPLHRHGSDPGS

Row | Compound | hERG current change (%, negative = inhibition) at 10uM [%]
1 | CC(C)(CO)Nc1ncnc2onc(-c3ccc(F)cc3)c12 | 8.52
2 | Cc1cc(NS(=O)(=O)c2ccc(NC(=O)c3cnc4scc(C)n4c3=O)cc2)nc(C)n1 | -7.41
3 | Cc1ccc(NC(=S)N(Cc2cccc(Br)c2)CC2CCC(C(=O)O)CC2)cc1 (stereo not drawn) | 6.73
4 | CC(=O)Nc1ncc(Cc2cc(Cl)ccc2Cl)s1 | -1.4
5 | CSCC(C)N1CCC(N2CCC(C(=O)NCc3ccccn3)CC2)CC1 (stereo not drawn) | -9.59
6 | COc1cccc(NC(=O)CN2C(=O)CSc3nc(C)cc(C)c32)c1 | 8.83
7 | O=C(Cc1ccccc1)Nc1ccc(N2CCN(Cc3ccccc3F)CC2)cc1 | 0.561
8 | CCCC(=O)c1cc2c(cc1NC(=O)c1ccccc1F)OCCO2 | 7.12
9 | Oc1ccc(/C=N/n2c(COc3ccccc3)n[nH]c2=S)c(O)c1 | 16.6
10 | Cc1cc(N/C(=N/S(=O)(=O)c2cc(F)ccc2F)c2ccccc2)n(-c2ccccc2)n1 | 36
11 | CCCC12CN3CN(C1)CC(CCC)(C3)C2O (stereo not drawn) | -5.84
12 | COc1ccc(N=C2C(=O)Nc3ccc(C)c(Br)c32)cc1 | 1.53
13 | CCCc1cc(C(=O)NNC(=S)NC2CCCCC2)cs1 | 8.95
14 | CCn1cc(CN2CCN(Cc3cccc(OC)c3)C(CCO)C2)c(C)n1 (stereo not drawn) | -14.4
15 | COc1ccc(O)c(/C=N/NC(=O)CN2CCS(=O)(=O)CC2)c1 | 18.7
16 | COc1cc(C)ccc1OCCCOc1c(Cl)cccc1Cl | 7.68
17 | Cn1cccc1C(=O)N/N=C/c1c(Cl)cccc1Cl | 3.26
18 | O=C(OCCN1C(=O)c2ccccc2C1=O)c1cccc(OC(F)F)c1 | -6.56
19 | Cc1nc2c(C#N)cnn2c2c1CCNN2C | -1.38
20 | [O-][n+]1onc2c1CCc1nnccc1-2 | 9.85
21 | O=C1CCCC2=C1C(c1cccs1)n1ncnc1N2 (stereo not drawn) | 4.95
22 | O=C(c1sc2cc([N+](=O)[O-])ccc2c1Cl)N1CCOCC1 | -32.8
23 | CCN(CC)CCCNC(=S)N(Cc1cccnc1)Cc1cc2cc(C)cc(C)c2[nH]c1=O | 22.9

Row | Compound | hERG current change (%, negative = inhibition) at 10uM [%]
24 | O=C(NCc1ccco1)C1CCN(Cc2ccc(F)cc2)CC1.O=C(O)C(=O)O | -15.4
25 | COC(=O)C1=C(c2ccccc2OCc2ccccc2)C[C@@H]2CC[C@H]1N2C(=O)NCCc1ccc(F)cc1 | 5.49
26 | Cc1ccc(CNC(=O)c2cc(=O)c3ccccc3o2)cc1 | 18.8
27 | Cc1ccc(NC(=O)c2ccc(CSc3ccccn3)cc2)c(O)c1 | 18.4
28 | CC(C)(C)c1ccc(C(=O)NN2C(=O)CSC2=S)cc1 | 12.9
29 | COC(=O)CSc1nc2nc(C)c(Br)cc2[nH]1 | 0.94
30 | CCCC(=O)OCC(=O)Nc1ccc(OC(F)F)cc1 | -18.1
31 | COc1ccc(NC(=O)CSc2nccn2C)c([N+](=O)[O-])c1 | -2.64
32 | COc1cccc(CCNC(=O)CCc2nnc(-c3cc(C)oc3C)o2)c1 | -7.06
33 | NNc1nnc2c3cc(F)ccc3n(CCc3ccccc3)c2n1 | -31.3
34 | CCOC(=O)C1=C(C)NC2=C(C(=O)CC(c3cccs3)C2)C1c1cccs1 (stereo not drawn) | -1.6
35 | CCCNC(=O)c1ccc2c(c1)C1C3CCC(C3)C1C(c1ccccc1)N2 (stereo not drawn) | 3.72
36 | Cc1cc(C)n(-c2nc(Nc3ccccc3C)nc(-n3nc(C)cc3C)n2)n1 | 10.4
37 | Cc1cccc(NC(=O)CN2C(=O)S/C(=C\c3cccn3-c3cccc(C(=O)O)c3)C2=O)c1 | 2.3
38 | CCCCCC(=O)C(=O)c1ccc(O)cc1O | 16.6
39 | CC(C)CN1C(=O)c2ccc(C(=O)Nc3ccccc3C(=O)O)cc2C1=O | 37.8
40 | Cl.O=C(NCCCn1ccnc1)c1ccccc1F | 2.13
41 | CCN1CN(Cc2ccco2)CNC1=S | -0.0885
42 | CCn1c(=O)c(C(=O)NCc2ccccc2)c(O)c2ccccc21 | 19.1
43 | OCCN1CCN(C(=S)c2ccc(-c3ccccc3)cc2)CC1 | -25.9
44 | COc1ccc(/C=N/n2c(C)cc(C)cc2=O)cc1 | 13.9
45 | CCn1c(=O)c(C(=O)NCc2cccnc2)c(O)c2ccccc21 | -56.4
